Some of the results follow.
Assays:
Assay in all cases: glycan array binding signal (z-score within array); higher = stronger binding
Conditions in all cases: glycan notation: IUPAC condensed, linker removed
[1] = molecular target: Neu5Ac(a2-3)Gal(b1-4)GlcNAc(b1-6)GalNAc
How it was run: (§1)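 Columns mapping to the same glycan were averaged after glycan names were converted to IUPAC-condensed notation. The data come from 3228 arrays in the Consortium for Functional Glycomics database, limited to those with an available protein sequence. Binding is reported as a within-array Z-score averaged across arrays of one protein sequence and across linkers.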

[2] = molecular target: Neu5Ac(a2-3)Gal(b1-4)GlcNAc(b1-6)[Gal(b1-3)]GalNAc
How it was run: as §1

[3] = molecular target: Neu5Ac(a2-3)Gal(b1-4)GlcNAc(b1-6)[Neu5Ac(a2-3)Gal(b1-3)]GalNAc
How it was run: as §1

[4] = molecular target: Neu5Ac(a2-3)Gal(b1-4)GlcNAc6S
How it was run: as §1

[5] = molecular target: Neu5Ac(a2-3)Gal(b1-4)[Fuc(a1-3)]GlcNAc
How it was run: as §1

[6] = molecular target: Neu5Ac(a2-3)Gal(b1-4)[Fuc(a1-3)]GlcNAc(b1-2)Man
How it was run: as §1

[7] = molecular target: Neu5Ac(a2-3)Gal(b1-4)[Fuc(a1-3)]GlcNAc(b1-3)Gal
How it was run: as §1

[8] = molecular target: Neu5Ac(a2-3)Gal(b1-4)[Fuc(a1-3)]GlcNAc(b1-3)Gal(b1-4)GlcNAc
How it was run: as §1

[9] = molecular target: Neu5Ac(a2-3)Gal(b1-4)[Fuc(a1-3)]GlcNAc(b1-3)Gal(b1-4)[Fuc(a1-3)]GlcNAc(b1-3)Gal(b1-4)[Fuc(a1-3)]GlcNAc
How it was run: as §1

[10] = molecular target: Neu5Ac(a2-3)Gal(b1-4)[Fuc(a1-3)]GlcNAc(b1-3)GalNAc
How it was run: as §1

[11] = molecular target: Neu5Ac(a2-3)Gal(b1-4)[Fuc(a1-3)]GlcNAc(b1-6)[Gal(b1-3)]GalNAc
How it was run: as §1

[12] = molecular target: Neu5Ac(a2-3)Gal(b1-4)[Fuc(a1-3)]GlcNAc(b1-6)[Neu5Ac(a2-3)Gal(b1-3)]GalNAc
How it was run: as §1

[13] = molecular target: Neu5Ac(a2-3)Gal(b1-4)[Fuc(a1-3)]GlcNAc6S
How it was run: as §1

[14] = molecular target: Neu5Ac(a2-3)Gal6S(b1-4)GlcNAc
How it was run: as §1

[15] = molecular target: Neu5Ac(a2-3)Gal6S(b1-4)[Fuc(a1-3)]GlcNAc
How it was run: as §1

Neu5Ac(a2-3)GalNAc = molecular target: Neu5Ac(a2-3)GalNAc
How it was run: as §1

[16] = molecular target: Neu5Ac(a2-3)GalNAc(b1-4)GlcNAc
How it was run: as §1

[17] = molecular target: Neu5Ac(a2-3)[GalNAc(b1-4)]Gal(b1-4)Glc
How it was run: as §1

[18] = molecular target: Neu5Ac(a2-3)[GalNAc(b1-4)]Gal(b1-4)GlcNAc
How it was run: as §1

[19] = molecular target: Neu5Ac(a2-3)[GalNAc(b1-4)]Gal(b1-4)GlcNAc(b1-3)GalNAc
How it was run: as §1

[20] = molecular target: Neu5Ac(a2-3)[Neu5Ac(a2-6)]GalNAc
How it was run: as §1

Neu5Ac(a2-6)Gal = molecular target: Neu5Ac(a2-6)Gal
How it was run: as §1

[21] = molecular target: Neu5Ac(a2-6)Gal(b1-3)GlcNAc(b1-3)[Gal(b1-4)GlcNAc(b1-6)]Gal(b1-4)Glc
How it was run: as §1

Neu5Ac(a2-6)Gal(b1-4)Glc = molecular target: Neu5Ac(a2-6)Gal(b1-4)Glc
How it was run: as §1

[22] = molecular target: Neu5Ac(a2-6)Gal(b1-4)GlcNAc
How it was run: as §1

[23] = molecular target: Neu5Ac(a2-6)Gal(b1-4)GlcNAc(b1-2)Man
How it was run: as §1

[24] = molecular target: Neu5Ac(a2-6)Gal(b1-4)GlcNAc(b1-2)Man(a1-3)Man(b1-4)GlcNAc(b1-4)GlcNAc
How it was run: as §1

[25] = molecular target: Neu5Ac(a2-6)Gal(b1-4)GlcNAc(b1-2)Man(a1-3)[Gal(b1-4)GlcNAc(b1-2)Man(a1-6)]Man(b1-4)GlcNAc(b1-4)GlcNAc
How it was run: as §1

[26] = molecular target: Neu5Ac(a2-6)Gal(b1-4)GlcNAc(b1-2)Man(a1-3)[GlcNAc(b1-2)Man(a1-6)]Man(b1-4)GlcNAc(b1-4)GlcNAc
How it was run: as §1

[27] = molecular target: Neu5Ac(a2-6)Gal(b1-4)GlcNAc(b1-2)Man(a1-3)[GlcNAc(b1-4)][Neu5Ac(a2-6)Gal(b1-4)GlcNAc(b1-2)Man(a1-6)]Man(b1-4)GlcNAc(b1-4)GlcNAc
How it was run: as §1

[28] = molecular target: Neu5Ac(a2-6)Gal(b1-4)GlcNAc(b1-2)Man(a1-3)[Man(a1-6)]Man(b1-4)GlcNAc(b1-4)GlcNAc
How it was run: as §1

B1: Cohesin-hDC-ASGPR (Homo sapiens) (protein)
chain: LDDLDAVRIKVDTVNAKPGDTVRIPVRFSGIPSKGIANCDFVYSYDPNVLEIIEIEPGDIIVDPNPDKSFDTAVYPDRKIIVFLFAEDSGTGAYAITKDGVFATIVAKVKEGAPNGLSVIKFVEVGGFANNDLVEQKTQFFDGGANVGDTTEPATPTTPVTTPTTTDDLDAASQNSKFQRDLVTLRTDFSNFTSNTVAEIQALTSQGSSLEETIASLKAEVEGFKQERQAGVSELQEHTTQKAHLGHCPHCPSVCVPVHSEMLLRVQQLVQDLKKLTCQVATLNNNASTEGTCCPVNWVEHQDSCYWFSHSGMSWAEAEKYCQLKNAHLVVINSREEQNFVQKYLGSAYTWMGLSDPEGAWKWVDGTDYATGFQNWKPGQPDDWQGHGLGGGEDCAHFHPDGRWNDDVCQRPYHWVCEAGLGQTSQESHHHHHH
glycan array binding signal (z-score) [1]: 2.59 | glycan array binding signal (z-score) [2]: -0.449 | glycan array binding signal (z-score) [3]: -0.52 | glycan array binding signal (z-score) [4]: -0.518 | glycan array binding signal (z-score) [5]: -0.493 | glycan array binding signal (z-score) [6]: -0.431 | glycan array binding signal (z-score) [7]: -0.492 | glycan array binding signal (z-score) [8]: -0.278 | glycan array binding signal (z-score) [9]: -0.426 | glycan array binding signal (z-score) [10]: 0.541 | glycan array binding signal (z-score) [11]: -0.487 | glycan array binding signal (z-score) [12]: -0.373 | glycan array binding signal (z-score) [13]: -0.488 | glycan array binding signal (z-score) [14]: -0.517 | glycan array binding signal (z-score) [15]: -0.507 | glycan array binding signal (z-score) (Neu5Ac(a2-3)GalNAc): -0.494 | glycan array binding signal (z-score) [16]: -0.511 | glycan array binding signal (z-score) [17]: 2.91 | glycan array binding signal (z-score) [18]: 2.55 | glycan array binding signal (z-score) [19]: 1.83 | glycan array binding signal (z-score) [20]: -0.297 | glycan array binding signal (z-score) (Neu5Ac(a2-6)Gal): -0.515 | glycan array binding signal (z-score) [21]: -0.51 | glycan array binding signal (z-score) (Neu5Ac(a2-6)Gal(b1-4)Glc): -0.501 | glycan array binding signal (z-score) [22]: -0.421 | glycan array binding signal (z-score) [23]: -0.304 | glycan array binding signal (z-score) [24]: -0.509 | glycan array binding signal (z-score) [25]: -0.498 | glycan array binding signal (z-score) [26]: -0.519 | glycan array binding signal (z-score) [27]: -0.511 | glycan array binding signal (z-score) [28]: -0.519

From the supplement of paper PMC8728848
